From PubChem BioAssay AID504333 (National Center for Advancing Translational Sciences (NCATS), 2011)
The whole screen tested about 360,000 compounds, of which about 16,000 (4.4%) were called active. Inconclusive results, whose numbers are uncertain, are shown with a selection of clear calls. Calls follow the shape of the dose curve; as a rule, active = well fitted inhibition curve with a large enough effect; inconclusive = small, poorly fitted or top-dose-only effect; inactive = no such curve, though single readings can be large or run the other way. Potencies beside an inconclusive call are fits to weak or partial responses and may not hold up.

target: Bromodomain adjacent to zinc finger domain protein 2B (Homo sapiens) (UniProt Q9UIF8); test: qHTS Assay for Inhibitors of BAZ2B; details: AlphaScreen BAZ2B-H3K14Ac peptide displacement; series mostly up to 114 µM; also: nearly all actives have a fitted effect of over 60% in size
Method in brief: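 AlphaScreen displacement: compounds (up to 110uM) incubated 30 min at room temperature with a preformed 50 nM BAZ2B/50 nM biotinylated H3K14Ac peptide complex in PBS pH 7.4 with Tween-20. Donor and acceptor beads at 10 ug/mL final added, 20 min light-protected before reading.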
Potency is read from the fitted curve at half-maximal effect; tags tell the direction and shape of the fitted curve.

Sequence of UniProt Q9UIF8 (Q9UIF8 whole entry, looked up, the tested form may be a part): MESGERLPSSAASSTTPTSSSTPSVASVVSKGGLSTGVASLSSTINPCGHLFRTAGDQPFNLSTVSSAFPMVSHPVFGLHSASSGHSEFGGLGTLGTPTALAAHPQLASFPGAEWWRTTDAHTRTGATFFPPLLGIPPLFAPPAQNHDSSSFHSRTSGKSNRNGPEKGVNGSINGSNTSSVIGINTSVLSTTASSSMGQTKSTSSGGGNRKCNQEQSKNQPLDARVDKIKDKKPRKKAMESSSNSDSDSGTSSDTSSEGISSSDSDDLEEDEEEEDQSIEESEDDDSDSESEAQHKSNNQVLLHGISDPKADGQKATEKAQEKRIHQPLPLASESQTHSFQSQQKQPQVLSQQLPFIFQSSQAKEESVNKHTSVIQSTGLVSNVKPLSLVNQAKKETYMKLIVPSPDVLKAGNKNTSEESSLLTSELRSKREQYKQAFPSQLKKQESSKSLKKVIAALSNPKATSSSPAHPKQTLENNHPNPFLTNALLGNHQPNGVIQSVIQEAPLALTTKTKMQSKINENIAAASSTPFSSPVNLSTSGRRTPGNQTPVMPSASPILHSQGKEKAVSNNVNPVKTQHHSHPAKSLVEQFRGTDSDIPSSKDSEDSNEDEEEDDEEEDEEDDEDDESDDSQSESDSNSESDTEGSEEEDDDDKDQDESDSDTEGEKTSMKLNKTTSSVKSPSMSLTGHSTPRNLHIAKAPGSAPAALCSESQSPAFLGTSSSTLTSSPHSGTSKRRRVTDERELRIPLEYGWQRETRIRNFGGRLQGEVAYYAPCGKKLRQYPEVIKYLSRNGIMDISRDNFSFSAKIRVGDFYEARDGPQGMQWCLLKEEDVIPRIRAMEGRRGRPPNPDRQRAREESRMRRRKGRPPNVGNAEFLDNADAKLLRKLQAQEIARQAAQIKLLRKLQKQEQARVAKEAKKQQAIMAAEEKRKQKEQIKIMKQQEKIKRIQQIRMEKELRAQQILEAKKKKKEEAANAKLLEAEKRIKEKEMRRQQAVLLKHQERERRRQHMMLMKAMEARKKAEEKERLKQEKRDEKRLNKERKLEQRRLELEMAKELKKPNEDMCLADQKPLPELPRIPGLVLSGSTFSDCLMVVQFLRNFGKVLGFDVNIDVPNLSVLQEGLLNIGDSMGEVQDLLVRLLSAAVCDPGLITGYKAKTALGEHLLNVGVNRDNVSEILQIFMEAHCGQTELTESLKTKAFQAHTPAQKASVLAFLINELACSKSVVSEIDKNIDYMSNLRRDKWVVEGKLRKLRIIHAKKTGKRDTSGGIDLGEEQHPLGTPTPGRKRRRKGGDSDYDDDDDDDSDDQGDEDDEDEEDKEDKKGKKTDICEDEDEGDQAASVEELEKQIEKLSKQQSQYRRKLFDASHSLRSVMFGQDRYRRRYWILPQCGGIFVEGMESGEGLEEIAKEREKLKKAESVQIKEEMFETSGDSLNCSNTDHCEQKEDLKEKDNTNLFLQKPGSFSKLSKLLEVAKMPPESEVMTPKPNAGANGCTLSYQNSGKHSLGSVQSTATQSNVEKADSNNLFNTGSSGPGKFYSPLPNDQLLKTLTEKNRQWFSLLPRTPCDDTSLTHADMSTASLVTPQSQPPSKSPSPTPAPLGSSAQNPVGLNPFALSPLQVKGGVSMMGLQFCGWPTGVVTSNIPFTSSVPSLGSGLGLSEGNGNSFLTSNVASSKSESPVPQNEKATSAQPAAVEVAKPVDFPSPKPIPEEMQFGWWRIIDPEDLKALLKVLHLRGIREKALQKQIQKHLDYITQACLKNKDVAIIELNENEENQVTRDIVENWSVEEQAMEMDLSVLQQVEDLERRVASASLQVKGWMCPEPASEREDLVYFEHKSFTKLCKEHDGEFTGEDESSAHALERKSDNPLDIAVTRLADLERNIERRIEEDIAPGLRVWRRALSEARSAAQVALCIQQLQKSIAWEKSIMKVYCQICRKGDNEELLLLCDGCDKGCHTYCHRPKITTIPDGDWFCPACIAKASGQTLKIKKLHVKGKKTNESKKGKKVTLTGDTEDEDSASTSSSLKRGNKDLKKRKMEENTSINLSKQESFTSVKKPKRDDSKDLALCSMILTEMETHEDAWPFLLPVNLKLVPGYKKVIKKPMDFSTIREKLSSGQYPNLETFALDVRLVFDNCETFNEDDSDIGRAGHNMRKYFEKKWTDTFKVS

Structure (SMILES) | Potency
NNc1nc(-c2ccccc2)cs1 | inconclusive: 56.2 µM [inhibitor, partial curve]
CCc1sc(C(C2C(=O)CC(C)(C)CC2=O)C2C(=O)CC(C)(C)CC2=O)cc1[N+](=O)[O-] | inconclusive: 89.1 µM [inhibitor, single point]
Cc1ccc(CNC(=O)Cn2c(=O)n(Cc3ccccc3)c(=O)c3c2c2cc(C)ccc2n3C)cc1 | inactive
COc1cc(NC(=O)c2noc3c2CCC3)c(OC)cc1Cl | active: 50.1 µM
Cc1cccc(/N=C/c2c(O)c3ccccc3oc2=O)n1 | inactive
O=C(COC(=O)C1CC1)Nc1ncc(C(F)(F)F)cc1Cl | inconclusive: 70.8 µM [inhibitor, single point]
C/C(=C\C(=O)c1sccc1Cl)N(C)C | inconclusive: 89.1 µM [inhibitor, single point]
Cc1ccc(Cl)cc1N1CCN(Cc2nnnn2Cc2ccco2)CC1 | inactive
CS(=O)(=O)Nc1cccc(-c2cn3ccccc3n2)c1 | inconclusive: 79.4 µM [inhibitor, partial curve]
CCc1ccc(-n2nc3ccc(NC(=O)c4cc(Cl)c(OC)c(Cl)c4)cc3n2)cc1 | inactive
Fc1ccc(Nc2nc(N3CCOCC3)nc(N3CCOCC3)n2)cc1 | inconclusive: 79.4 µM [inhibitor, single point]
O=C(CSc1nnc(CNc2ccc(F)cc2)n1Cc1ccco1)N1CCOCC1 | inactive
Cc1cc(O)c(NC(=O)c2ccc(Br)o2)cc1C | active: 50.1 µM
COC(=O)C1Sc2[nH]c(=O)sc2C(c2ccc(Cl)cc2)C1C(=O)OC (configuration not stated) | inconclusive: 89.1 µM [inhibitor, single point]
Cc1c(Cl)cccc1NC(=S)Nn1cnnc1 | inconclusive: 79.4 µM [inhibitor, single point]
O=C(NCc1ccc(F)cc1)c1cc(Sc2ccc(F)cc2F)nc2ccccc12 | inactive
O=C(c1cc(COc2ccc(F)cc2Cl)on1)N1CCCCCC1 | inactive
O=C(NCc1ccc(Cl)cc1)c1ccc(NC(=O)N2CC3CCCN3c3ccccc32)cc1 (configuration not stated) | inactive
C/C(CC(=O)Nc1ccc2c(c1)OCCO2)=N\NC(=O)COc1ccc(C)cc1Br | inactive
COc1ccc(N2CCN(CC(O)COc3ccc(C)cc3C)CC2)cc1 (configuration not stated) | active: 39.8 µM
Cc1ccc(CNC(=O)CCS(=O)(=O)c2cc3c(cc2Cl)NC(=O)CO3)cc1 | inconclusive: 22.4 µM [inhibitor, full curve]
Cc1ccc(Cl)cc1N1CCN(C(=O)CN2C(=O)COc3ccc(S(=O)(=O)N4CCC(C)CC4)cc32)CC1 | inactive
